# ± gives the standard deviation of the averaged measurements. The full ranking holds about 4,100 sequences; the median of “arbitrary fluorescence units” is about 780, and the highest 2% start at about 22,000. Some of the results follow.
# Molecular target: T1, ETS1 (UniProt P14921)
# T1 sequence: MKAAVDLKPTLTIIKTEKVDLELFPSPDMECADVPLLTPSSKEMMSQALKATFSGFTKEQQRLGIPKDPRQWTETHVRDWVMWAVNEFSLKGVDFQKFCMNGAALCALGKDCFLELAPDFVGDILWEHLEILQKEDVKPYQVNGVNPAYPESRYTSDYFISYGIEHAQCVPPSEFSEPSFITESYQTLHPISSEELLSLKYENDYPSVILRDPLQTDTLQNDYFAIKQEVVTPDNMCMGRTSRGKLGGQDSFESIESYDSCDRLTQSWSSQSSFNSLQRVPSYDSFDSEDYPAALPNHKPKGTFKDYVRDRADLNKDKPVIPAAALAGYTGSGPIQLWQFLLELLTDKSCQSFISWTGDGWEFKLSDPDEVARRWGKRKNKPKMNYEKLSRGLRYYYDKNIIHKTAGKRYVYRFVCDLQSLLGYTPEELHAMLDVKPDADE
# Assay: ETS1 binding intensity (PBM fluorescence), ETS1 alone (arbitrary fluorescence units); higher = stronger binding
# Conditions: ETS1 concentration 1 nM; RUNX1 concentration 0 nM
# Method in brief: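 Full-length recombinant human ETS1 (1 nM, no RUNX1) was incubated, per standard PBM protocols, on double-stranded Agilent 4 × 180k arrays of 36-bp genomic probes whose RUNX1 partner site was mutated. Bound ETS1 was detected with anti-ETS1 antibody (Cell Signaling Technology 14069) and Alexa488-conjugated secondary antibody, then scanned on a GenePix 4400A. Binding level is spot fluorescence intensity, summarised over replicate spots (four printed per sequence) and not normalised.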
row,Sequence,ETS1 binding intensity
1,GGGGCAGGAAGTGGAGGTTTGAAGTGCTTTAGAGTA,7390
2,ACGATCCAACAGCATTCACCCCGGAAGCCGCTTCCA,1340
3,TGACATGGCTTCCGCCTTGGGCTTTGGGGTCTCCCA,4230
4,CGGCCGCCCGGCTTCCTCTCCCGCTGCAGCCCTGGC,1680
5,TTGGTCAGGATGTGGCTGAAGAAGTCACAAGAAAAA,1090
6,AGGGAGGTAGTGCTGTAGAATTTTCCGCTATGGGTC,502
7,AGGGTGTTAGGGCCCCAAGGGCAGGAAGACCAAGTG,405
8,ACCATAAGGACCGGAAGCAGAGACAACACTGGTGCT,10400
9,CAGACCAGCCCAGGAAACAAGGAACCCCAAAGCCAC,538
10,GGAGAGCTCCTGCAGTCCAGCCGGATGACTGATGAG,365
11,CCATGTTTCCCGCTGGCAGTCGCGTGGGAAGTGACG,814
12,TGTTGTAGGGGAAGTGGTGTGTCGTATTCCTGGGGA,660
13,AACCCGGAAGTGGACACGGAGCTCGGCTGCAGCTCC,12400
14,CCTCTTATACGACACTGTGGGAAGCAGGAAGGGTGC,536
15,GGGCGCGCTTGCCGGGGAACGCGTTTCCCGCCGCAC,365
16,GGCACTCCGCGCCGGGGTAGGAACTTCCTCCCACCT,585
17,CACGTCCGTCCCCTACAACGCGGCCGTCCGCGCGGA,3990
18,CTGGGGTTGGGCTGTGTAGGCGCGGATTTCCTGGCT,500
19,CTCGGGATTTGGGGTCCACCCGGCGGAACTCGCGGC,299
20,ACCCCACCTACGGCCACCTCATCCTGAGTCTGAGAG,532
21,AGGTCTTGTAGCTCATTTTGTACCCACTTCCTGGGC,630
22,ATTTTGGGGTTTAACTAGATATTATCTATTTCCGGA,1780
23,GCACAGGCCGGAAGGAAAAGGGTTCTGGGGCTCATT,1620
24,CAGGGATTCCGGCTGAGTGCGGCCCCCTCAGCCTCC,606
25,AAGCTGCGCGTTCCATGGCGCGGATGCCGGGCCCTG,279

row,Sequence,ETS1 binding intensity
1,GACTATGTGCTTCCGGTCTCCAATACCCCAGGAGGG,19600
2,GTCCCCGACTTCCGCTCTCGGTTGGTAGTTGGCTTT,14600
3,TCCCCTGTCTTCCGGAGGCTGGGGCGCAGCGGCGCA,3430
4,AAGTGCAGACACCAGACACCCCACAGGAAGTCAAGT,1050
5,CGGCCTCTTCCGCCAAAACTCCGGCCCGCTGTCCCG,2790
6,GTTCAGCAGGAAGTGGATGTGGATGTGTGCTTGCCA,4140
7,ACTGTAGGCGCAGGCGCGGCTGCCGCTTCCTCTTTA,457
8,GTGCTTCCTTCAGTCTCACCTCCCAGCGGCGTGGGC,1400
9,GTTCTTATCCTGTGGCTCGTTTGGGGTTACTGACAT,1420
10,CGTTTCCTGTCTGGGACTGCGCCCACGCGATCACGT,38800
11,CGAGCAGCGCTTGCCGCGGGGGCGGAACAAACAGGC,377
12,TTATCTGGTAGGTGAGGTAAAGAAGGAAGTGGAGAA,670
13,TCCTCCCACGGGAAGTGCCGTAGGACCCCAGCCCGA,959
14,ATCCCGGACGGTGCACCGACCCGAGGCACACGGCAC,348
15,GGCAGCGCTTTTCGCTGTCGGAACGGAAGGGAAGCA,413
16,CAGGTCACCCCAGTCCCCACCACTTCCTGTTATTGT,3940
17,CGGCGCCTACGGCCCACCCCTCCCTTTCCGGTCCCC,1140
18,TTGGGGCCCCAGAGAAAGTCAGCGGAACGTGAAATG,337
19,AAGCCACTTCCTGGTGACCCAGTGATAAACACTTGA,12300
20,CACGTCCTACGGCCTCAGCCGCCTCTTCCGCCATCC,1230
21,AAAACCCGGGAATCGCCGCGAACCGGAACCGCCTTC,503
22,AGCAACAGGAAAGAACAGCCTGAGCACAGCAGCCAC,778
23,TGTGTAACTTCCTGGCTTTGGTGCTTTCCCCCTCCT,4640
24,TGTCGCCAGCGCTGGATGGAGCCTTGCCGGATCTCC,316
25,CAGCCAGCCAGGAAGCAGGGGCTGAGGGGCTGACAG,860

row,Sequence,ETS1 binding intensity
1,GCAACTGAACAGGAAACTAAAAAACCCCAACACTTA,2240
2,GGGGTCAGGAAATGGGTGTGCCGAGGGTAAGGCGCT,2060
3,GAAGTGAGTTAAGGAGCTGCACTGCTTCCTGCCCCC,826
4,CTGCGCTTCCGCGGCGCCGCTCTGGCCGCGCGAGGG,1530
5,CTGATGGCTGGGGTTCAAACTTCCCCTGGGTGACCC,506
6,CTCACAACTCGCGTCCGGCGGAGACCCCAATTCCCG,1260
7,CCGCCACCGAAGCTAAAACTTCAGGCGCCGGAACCG,408
8,GAAGAAATGTCGCTATCATCTTCCGTCCTTCACCGA,800
9,GGCAGGAAAGAGCTGATGCATTTCAACAGCAGCCTG,477
10,CAGGGGCTACGCGCGCAGGACGCTGTTTCCTGCCCC,849
11,GCGGAGGGAAGCGGAAATACTTGCAGTGGGGGCGAC,3700
12,AGAAGCCCGGAATGGACGCGAAAGTGAGCACGCGAA,380
13,CCAGCCACTTCCGCTCGTCCGCCTAATATCGCGCCT,21100
14,CTGACTTGTTGTAGTCTCTGCCACTTCCTGGGGTGT,661
15,TCTGCTGCTTCTCTGGTTTACGGAAATTGTAACCCT,493
16,GAGTGGGCGGAAATCCGTGCCTGGCAGACCAAAAAG,3810
17,GTCCAACAGCAGCCAGGCAAGCACATCCTGCCCCAC,1980
18,GGCCCTGGGCCGCTGGGGTAGCGACAGGAAGCGCCA,572
19,GGCCAAGAAATCCACTCAGAGGAAATCACAGGCCTG,439
20,GGTACTCGCGGCTGAGCCAGCGGAAGAACGCCGGGA,444
21,GCTCTCTGGCCTCCCCAGAGGTCAGATCAGGAAATG,358
22,AGGGAGGAAGGGTACTGTTGGGAGCCCGTAATGGAA,435
23,TCGCAGATATCACACCCACCCGGAAGTCCTCCTGGC,1390
24,GGCTAAAGTGATTGGGGGTTGGATCCGGCGCGTGAC,468
25,GGTCACTTCGGCCCAGAGGCCCGCTCTTCCGCTGAG,564

row,Sequence,ETS1 binding intensity
1,CCTGCGTTTCCCTCATGAGCTTCTTCGGCCCGAAAC,585
2,ATGAATGGGATGTGGCAGCCCAGCCCTGAGGTGGAG,348
3,CGGCGCTTGGGGGCGGGGCCGACCCCGGAAGGAAGG,641
4,GGTGGACCTGTGATTTGCAACACAGGAAGAGGTGGC,947
5,CCTACACTTCCCAGAGAACCTAGCGATTACGCCAAC,531
6,CAGTTTATCCTGTGAGAGCCTTGGGGTTCCTACTAA,975
7,AGAGGCAGTTCCGGGGTGGGACCCGCGCGGAGCTTT,3060
8,GCAGAGTAACTCACTCTAGTTGTCCCTTCCTTAAGC,434
9,CACTTGTCCTTCCTGGCCTGCGCCCGCCACCACTTC,1320
10,GCCCTACCCAGCGGCGGCCGGACGCTTCGGCGCAGG,435
11,ATCGACTACCGAATCTGCAGACGTGCGCGGAAATGG,482
12,CCGCGAACAGCAGAGTTCCCGCCTTCCGCAGCCCGG,431 ± 38
13,ACAGCTCACACAGGAAATACAAACCTTAAAAAGCAA,5480
14,GAACGGAACTGGGGGCTGGGCCGTGTAGGTTTGTGA,456
15,GCCGTCACTTCCGTCATTCAAGCCGCCCGCCAATGG,9110
16,CGGGAGAGGAAGCCGGGTTGGACAGAGGTGGATTCC,767
17,GACCAGGAAACGGGGCGTGGCGGCCGCCGTGGCTAC,1230
18,ACACGCACCATTTCCCGACTTTCGAGGTGTCCCAGG,1300
19,GTAAAGAGCAGCCGCTGACAGGAAGGGGCCCAGCAG,707
20,ACCCCAGCCGGATCCTCTGCTTATCTCCCACGTGCA,395
21,CAGGCCTGTAGTTTCTGTAACAGGAAGTGATTTAGA,3870
22,AAAACCTTTAAACTACAGGGGACAGGAAATGAGTGC,1990
23,CAGCAAGTCACAGGCAGTAAACATTTCCTGTCCCCA,3920
24,CTGCCCAGCCACTTCCTGCCCAACCCCAGACTGACA,16300
25,GAGTACAGGAAATGCAAAGTAAAATCACAGTGAGAT,6100

row,Sequence,ETS1 binding intensity
1,TGCACGTGAGCACGGACTTTTTTTCATATCCGCCGA,502
2,GGCTACCGGCACCCTCAGTGTCCGGAAACGCAGTCC,1480
3,TCTCTTCTCCCCATCCGCCCGAGACAACAGCCACTC,1070
4,TGAAGCAGGCGGAAGTGCTGTGCTTTCTGGCGACTG,3140
5,CTAGCAACCTCGGGAAGGGGGCGTGGCCGGAAGCCT,677
6,TTTCTTCCTGTTTGCATCACCCCAAATCCACTATCA,16900
7,AAAGAGGAAATCACATACCCGAAAATCACATGCACA,777
8,AAAGAGAAAGGAAACAAAGTATAGCACCAGAGTGAG,505
9,AGCAGCCGCCGTAACCTGTAGCAACCGGAAGATGTC,2460
10,CCGCTCACAAGGAGGACTGAGACGCTTTTCCTGATA,441
11,AGCGGCGGAACCACGCGCGGGAGCTGGTGCGCTCGG,325
12,TGACTGCTCACTTCGGGCGAGGGGAAGTGGAGTGCA,446
13,GAAACTACAACCTACCCCAGCCTTCCTTCCGGGCGC,504
14,AGCCACATCCTCCCTTAGGTCTGAGCGCAGCTTAAC,5620
15,CCTCCTCCAGACCATCCTGGAAACCCCTGCCGTTCT,478 ± 88
16,TTGCCGACCTCGGGGAGCAAGCGCCCGCCGGAAGCA,477
17,TCACAGCGCAGCGGGGCCGGAAGGGGAGCGTGGGAG,807
18,CAACCAGCCCCTCAGCTGAGCTTCCGCTCAGCTCTC,1590
19,GGTACACCCCGCCCTCAGGTACCCGGACGGCGCAAG,345
20,CTCCTGTGGGATGTGACTTCAAGGAGACAACAGATG,522
21,TGGAGGTGCTTACACACAGCTGTTTCCGTGAGGGTG,421
22,AAGCCGGTGGATTCTGGAGGTTCAGCACATCCTGGA,531
23,AGTCTCGTTTCCTGTGCGCTGTTGCCACCTGGCAGC,12800
24,TCATAAGGAAGTGGAGTGTAGTAATCACAGGCCCCG,589
25,GCCGGCGGCCGGAAGTCTATCCCGGAGAAGCGCAGC,14600
